Screen size: about 310,000 compounds; about 2,200 (0.71%) showed an effect of 50% or more. The effect is printed as a negative number. This is one part of the list.
Target: human ether-à-go-go-related gene (hERG) potassium channel (human, UniProt Q12809)
Experiment: primary screen, population patch clamp on CHO cells stably expressing hERG

Chain of human ether-à-go-go-related gene (hERG) potassium channel (Q12809 whole entry, looked up): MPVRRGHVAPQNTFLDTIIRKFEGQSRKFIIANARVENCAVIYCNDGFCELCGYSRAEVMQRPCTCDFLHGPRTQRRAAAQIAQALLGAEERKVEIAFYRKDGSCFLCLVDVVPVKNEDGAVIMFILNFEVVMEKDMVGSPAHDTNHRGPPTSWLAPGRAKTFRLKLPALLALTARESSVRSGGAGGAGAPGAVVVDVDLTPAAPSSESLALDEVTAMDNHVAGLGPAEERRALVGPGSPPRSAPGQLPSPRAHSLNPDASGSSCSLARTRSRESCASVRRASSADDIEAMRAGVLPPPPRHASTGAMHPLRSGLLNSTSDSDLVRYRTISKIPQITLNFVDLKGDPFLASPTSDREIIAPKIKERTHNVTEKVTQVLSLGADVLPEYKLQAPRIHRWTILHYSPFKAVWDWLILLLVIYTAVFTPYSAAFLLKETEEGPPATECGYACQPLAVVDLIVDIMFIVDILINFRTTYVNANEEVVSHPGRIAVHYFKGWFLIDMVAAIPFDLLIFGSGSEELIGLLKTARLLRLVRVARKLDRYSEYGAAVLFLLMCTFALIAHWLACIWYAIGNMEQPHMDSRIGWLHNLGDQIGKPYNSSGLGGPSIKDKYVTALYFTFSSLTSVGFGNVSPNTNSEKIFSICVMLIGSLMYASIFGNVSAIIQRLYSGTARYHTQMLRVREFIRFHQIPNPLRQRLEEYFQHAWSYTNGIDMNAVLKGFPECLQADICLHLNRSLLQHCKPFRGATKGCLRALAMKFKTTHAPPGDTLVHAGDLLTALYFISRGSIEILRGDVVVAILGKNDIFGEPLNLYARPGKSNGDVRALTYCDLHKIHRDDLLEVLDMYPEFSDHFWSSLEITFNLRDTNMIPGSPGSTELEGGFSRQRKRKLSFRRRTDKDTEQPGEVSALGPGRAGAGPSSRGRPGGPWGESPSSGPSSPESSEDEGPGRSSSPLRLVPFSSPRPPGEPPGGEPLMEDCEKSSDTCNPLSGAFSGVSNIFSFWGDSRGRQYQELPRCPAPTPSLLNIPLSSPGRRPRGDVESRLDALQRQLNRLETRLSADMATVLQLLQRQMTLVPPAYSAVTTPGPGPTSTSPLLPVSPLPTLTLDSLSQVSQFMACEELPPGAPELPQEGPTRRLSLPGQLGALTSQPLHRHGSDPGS

Row | Structure (SMILES) | hERG current change (%, negative = inhibition) at 1uM [%]
1 | COc1ccc(CNc2nc(C)c([N+](=O)[O-])c(C)c2C#N)cc1 | 5.95
2 | CC(C(=O)Nc1ccccc1Br)c1ccc([N+](=O)[O-])cc1 (stereo not shown) | -1.59
3 | O=C1C=C(c2ccc3c(c2)oc2ccccc23)C[C@@H](c2ccc3c(c2)OCO3)C1 | 18.3
4 | O=C(N/N=C/c1cc(Cl)cc([N+](=O)[O-])c1O)c1ccc2c(c1)OCO2 | 16.2
5 | CC(=O)C1C(=O)C=C(c2ccco2)CC1c1ccccc1 (stereo not shown) | 4.32
6 | COc1ccc(N(C(=O)CS(=O)CC(=O)Nc2ccc(F)cc2)C(C(=O)NC2CCCCC2)c2cccs2)cc1 (stereo not shown) | 6.31
7 | O=C(NCCCC(NC(=O)OCc1ccccc1)C(=O)O)OCc1ccccc1 (stereo not shown) | 17.5
8 | CCOC(=O)c1cc(NC(=O)Nc2ccccn2)c(C)nc1C | -0.343
9 | O=C(NCCN1C(=O)S/C(=C/c2ccccc2)C1=O)C1CCCN1C(=O)c1cccs1 (stereo not shown) | -0.548
10 | CC(C)CCNC(=O)c1cc(S(=O)(=O)N2CCCCC2)ccc1N1CCOCC1 | 7.49
11 | O=C(N/N=C/c1ccc(F)cc1)c1cc(-c2ccc3c(c2)OCO3)n[nH]1 | 3.43
12 | O=C(O)C(=O)O.O=[N+]([O-])c1ccc(N2CCN(Cc3ccc([N+](=O)[O-])o3)CC2)cc1 | -47.3
13 | CCN(CC)N=O | 11.1
14 | Cc1ccc(-c2nc(C(F)(F)F)cc(=O)[nH]2)cc1 | 14.1
15 | Cc1ccc(C(=O)Nc2nnc(SCC(=O)N3CCCc4ccccc43)s2)cc1 | 10
16 | O=C(C[n+]1ccc(-c2nnc3n2CCCCC3)cc1)c1ccc(Cl)cc1.[Br-] | 10.5
17 | CCOC(=O)c1ccc(N2CCN(C(=O)c3ccccc3)CC2)c(NC(=O)c2ccco2)c1 | -9.66
18 | COC(=O)NCc1ccc2c(c1)OCO2 | 7.79
19 | O=C(NCc1ccccc1)[C@]1(C(F)(F)F)C[C@H](CCc2ccccc2)CCCO1 | 9.86
20 | CCOC(=O)c1c(C(F)(F)F)cc(-c2ccc(F)cc2)nc1C | 14.9
21 | Cc1ccc(S(=O)(=O)N2CCN(C3CC(=O)N(CCc4ccccc4)C3=O)CC2)cc1C (stereo not shown) | 8.31
22 | Cc1cc(C)c2cc(C(=O)Nc3ccccc3)[nH]c2c1 | 15.3
23 | CCCCOc1ccc(/C=N/Nc2cc(N3CCOCC3)nc(C)n2)cc1 | -1.03
24 | CC1CN(CCOc2ccc([N+](=O)[O-])cc2)CC(C)O1.O=C(O)C(=O)O (stereo not shown) | -13.6
25 | Cc1cc(C)c2c(c1)cc(C)c1nnc(SCC(=O)Nc3ccc(S(=O)(=O)N4CCCCC4)cc3)n12 | 14.2
26 | O=S1(=O)c2ccccc2N=NN1Cc1ccc(Cl)cc1 | 20.8
27 | Cc1ccc2nc(N3CCOCC3)c3nncn3c2c1 | 3.23
28 | CSCc1ccc(C(=O)NCc2ccccc2)cc1 | 7.45

Row | Structure (SMILES) | hERG current change (%, negative = inhibition) at 1uM [%]
29 | O=C(Cn1ccc(C(F)(F)F)n1)N/N=C/c1ccc(N2CCOCC2)cc1 | 14.8
30 | CCOc1ccc(OCCC(=O)OCC(=O)Nc2ccc(Cl)cn2)cc1 | 7.79
31 | C/C(=N\Nc1ccc(C(=O)O)cc1)c1ccc(Cl)s1 | 11.3
32 | COc1ccc(NS(=O)(=O)c2ccc3c(c2)oc(=O)n3C)cc1Cl | 15.3
33 | CCOCCCNC(=O)C1(O)c2cc(Br)ccc2NC(=O)N1c1ccc(CC)cc1 (stereo not shown) | 20
34 | CCCCn1c(O)c(C(CC)=NCc2cccnc2)c(=O)[nH]c1=O | -13.1
35 | CC(C(=O)N(C1CC1)C1(C(=O)Nc2ccccc2)CCCC1)N1C(=O)c2ccccc2C1=O (stereo not shown) | 10.9
36 | c1ccc2c(c1)c1cccc3ccc4cccc2c4c31 | 8.22
37 | COc1ccc(N(CC(=O)N/N=C/c2ccc(F)cc2)S(=O)(=O)c2ccccc2)cc1 | 3.25
38 | O=C(C1CCCN(S(=O)(=O)c2ccc(Br)cc2)C1)N1CCN(Cc2ccccc2)CC1 (stereo not shown) | -15.1
39 | CC(C)(C)OC(=O)CN1C(=O)S/C(=C\c2ccc(-c3cccc(C(=O)O)c3)o2)C1=O | 6.33
40 | O=C(O)Cc1cn(Cc2cccc(Cl)c2)c2ccccc12 | 14.6
41 | CCOc1ccc(Nc2cc3n(c(=O)n2)CCc2cc(OC)c(OC)cc2-3)cc1 | 9
42 | COc1ccc(-c2ocnc2C(=O)N2CCN(C(c3ccccc3)c3ccccc3)CC2)cc1 | 3.45
43 | Cc1ccc(CS(=O)(=O)CCC(=O)NCc2ccc(F)cc2)cc1 | 9.81
44 | COCCCn1c(SCC(=O)Nc2oc(C)c3c(C)n[nH]c(=O)c23)nc2ccccc2c1=O | 0.833
45 | O=c1[nH]c(Cc2cccc(C(F)(F)F)c2)nc2ccccc12 | 14.2
46 | O=C(COc1ccccc1)NCCc1cnc[nH]1 | 8.73
47 | CC1CCC(NC(=O)CN(C)CC(=O)Nc2ccc(F)cc2)CC1 (stereo not shown) | 11.9
48 | CCN(CC)C(=O)CS(=O)CC(=O)Nc1cc(OCCOC)c(Cl)cc1Cl (stereo not shown) | 11.1
49 | Cc1ccc(S(=O)(=O)NCC(=O)OCc2csc(-c3ccccc3)n2)cc1 | 14.2
50 | COCC(=O)N1CCC(Oc2ccc(C(=O)N3C[C@@H](C)O[C@@H](C)C3)cc2)CC1 | -10.4
51 | CC(C)=CC(=O)Nc1nnc(C)s1 | 4.93
52 | CCNC(=O)CCCOc1ccc(Cl)cc1Cl | 17.4
53 | C=CCn1c(-c2cccc(OC)c2)n[nH]c1=S | 10.8
54 | Cc1ccc(C(=O)OCC(=O)Nc2cc(F)ccc2F)cc1NC(=O)c1ccco1 | 12.2
55 | CC(C)C(NC(=O)c1ccc(Cl)cc1)C(=O)NCC1CCCO1 (stereo not shown) | 11.7
